Data taken from article PMC6919601, “Identification of Plasmodium dipeptidyl aminopeptidase allosteric inhibitors by high throughput screening” (PLoS ONE, 2019).
The whole screen tested about 110,000 compounds, of which about 230 (0.21%) showed an effect of 50% or more. The list shows a part of the results.

Each compound was assayed against DPAP1 (Plasmodium falciparum, UniProt Q8IIJ9) (assay: primary screen, percent inhibition; read by cleavage of a fluorogenic dipeptide substrate; higher = more effect of the substance).
Design: species or system P. falciparum D10 trophozoite lysates; single well
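Further: 30 min substrate incubation versus DMSO and 10 µM JCP410 controls.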

Chain of DPAP1 (Q8IIJ9 whole entry, looked up): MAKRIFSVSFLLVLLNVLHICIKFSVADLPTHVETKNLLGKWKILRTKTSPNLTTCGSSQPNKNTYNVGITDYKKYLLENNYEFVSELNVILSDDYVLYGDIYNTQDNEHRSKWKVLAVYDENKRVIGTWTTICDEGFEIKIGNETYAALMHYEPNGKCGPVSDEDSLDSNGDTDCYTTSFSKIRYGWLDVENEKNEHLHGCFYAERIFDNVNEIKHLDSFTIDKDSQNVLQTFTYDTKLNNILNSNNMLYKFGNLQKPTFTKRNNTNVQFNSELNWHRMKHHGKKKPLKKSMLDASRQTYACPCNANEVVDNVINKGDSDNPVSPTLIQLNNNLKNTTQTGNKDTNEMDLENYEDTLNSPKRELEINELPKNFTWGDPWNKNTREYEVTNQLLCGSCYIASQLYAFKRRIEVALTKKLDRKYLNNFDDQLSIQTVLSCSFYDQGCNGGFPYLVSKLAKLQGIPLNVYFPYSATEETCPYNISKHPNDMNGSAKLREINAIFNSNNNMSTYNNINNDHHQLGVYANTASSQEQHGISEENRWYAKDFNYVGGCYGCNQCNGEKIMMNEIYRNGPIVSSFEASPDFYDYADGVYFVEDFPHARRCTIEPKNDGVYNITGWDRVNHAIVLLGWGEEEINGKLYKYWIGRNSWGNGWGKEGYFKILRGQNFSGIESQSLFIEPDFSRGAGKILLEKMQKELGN

Row | SMILES | % Inhibition @ 10 uM [%]
1 | CCC1CCCCN1C1CC(=O)N(c2ccc(OC)cc2)C1=O (centres unmarked) | -0.661
2 | N#CC1=C(N)Oc2c(ccc3ccccc23)C1c1ccc2c(c1)OCO2 (centres unmarked) | 4.26
3 | O=C(NC1CCN(Cc2ccccc2)CC1)C1(S(=O)(=O)c2ccc(Cl)cc2)CC1 | 5.19
4 | CCOC(=O)C1=CN(Cc2ccc(F)cc2)C=C(C(=O)OCC)C1c1cccc(F)c1 | -1.46
5 | O=C(N/C(=C\c1cn(-c2ccccc2)nc1-c1ccccc1)C(=O)N1CCOCC1)c1ccc(Br)cc1 | 5.93
6 | COc1cccc2cc(-c3nc(NC(C)=O)sc3C)c(=O)oc12 | 0.379
7 | Cc1ccc(OCC(=O)NCCN2CCOCC2)cc1 | 7.35
8 | S=c1n(CN2CCOCC2)nc(Nc2ccccc2)n1-c1ccccc1 | 2.76
9 | CN1C=C2C(C#N)=C(N)C(C#N)(C#N)C(c3cccc(Cl)c3Cl)C2CC1 (centres unmarked) | -3.27
10 | CSc1ccc(CN(CCN(C)C)Cc2ccccc2)cc1 | -6.24
11 | Cc1cccc(-c2n[nH]c(S)n2)c1 | 43.9
12 | Fc1cccc(Cl)c1CN1CCN(C/C=C/c2ccccc2)CC1 | -2.02
13 | O=C(CN1C(=O)CSc2ncccc21)NCc1ccccc1F | -3.57
14 | O=C(NCc1ccccc1Cl)c1nnc(-c2ccncc2)o1 | 0.974
15 | CC1=CCC2C(=O)N(c3ccc(C(=O)Nc4ccccc4)cc3)C(=O)C2C1 (centres unmarked) | 1.7
16 | COc1cccc(OCCNS(=O)(=O)c2ccc(C3CCCCC3)cc2)c1 | 8.96
17 | Nc1nonc1C(=O)NCCNC(=O)c1cccs1 | -3.33
18 | COc1ccccc1Nc1nc(-c2ccc(S(=O)(=O)N3CCCC3)cc2)cs1 | 1.41
19 | O=C(CCCc1nnc2n3nc(-c4ccccc4)nc3c3ccccc3n12)NCCc1ccccc1 | -4.69
20 | CC(C)Oc1ccc(CC2CC(=O)NC2=O)cc1 (centres unmarked) | 1.24
21 | CCCCC(=C1C(=O)CC(c2ccccc2)CC1=O)N1CCCC1 (centres unmarked) | -6.7
22 | COc1ccc(Br)cc1/C=c1\sc2nc(=O)c(C)nn2c1=O | -5.2

Row | SMILES | % Inhibition @ 10 uM [%]
23 | N#CC1=C(N)Oc2cc(N)ccc2C1c1cccc(Cl)c1Cl (centres unmarked) | 3.1
24 | c1cncc(CNCc2cccn2-c2nnc(N3CCOCC3)s2)c1 | -3.09
25 | COc1ccc(C2Nc3c(ccc4ccccc34)C3=C2CC(C)(C)CC3=O)cc1OC (centres unmarked) | 9.73
26 | O=C(NCCCCNC(=O)c1cccc(F)c1)c1cccc(F)c1 | -3.18
27 | O=C(Nc1ccc(Cl)c(Cl)c1)C(O)c1ccccc1 (centres unmarked) | -4.35
28 | CC1CCN(c2nc(-c3ccccc3)cc(C(F)(F)F)n2)CC1 | 5.41
29 | CCOC(=O)c1c(NC(=O)CNC(C)C)sc2c1CCCCC2 | -3.38
30 | COc1ccc(OC)c(C2C3=C(O)CCCC3=NC(C)=C2C(=O)Nc2ccccc2OC)c1 (centres unmarked) | -1.06
31 | CCCC1=NN(S(=O)(=O)c2ccc(C)cc2)C(O)(C(F)(F)F)C1 (centres unmarked) | -2.77
32 | Cc1ccc(-n2nc3c(=O)n(CCCC(=O)NCCc4ccc(Cl)cc4)nc(C)c3c2C)cc1 | -7.74
33 | CC1=C(C(=O)OCc2ccccc2)C(c2ccccc2)NC(=O)N1 (centres unmarked) | 1.38
34 | CCCc1nn(-c2ccc(F)cc2)c(O)c1/C=N/CCN1CCN(C(=O)c2ccccc2)CC1 | 0.503
35 | CCOC(=O)c1cnc2c(C(F)(F)F)cccc2c1NCCN(C)C | -0.169
36 | COCCCNC(=O)c1oc2ccc3c(c2c1C)C(O)CC1(CCCC1)O3 (centres unmarked) | 1.14
37 | CC(Oc1ccccc1)C(=O)n1nc(-c2ccco2)nc1NCc1ccc(Cl)cc1 (centres unmarked) | -5.08
38 | CCOC(=O)C1=C(CS(=O)(=O)c2ccccc2)NC(=O)NC1c1cc(OC)c(OC)c(OC)c1 (centres unmarked) | -5.79
39 | O=C(c1ccccc1F)N1CCN(Cc2ccccc2Br)CC1 | -6.94
40 | COc1ccc(C(=O)N2CCC(C)CC2)cc1Br | 0.145
41 | OCCN1CCN(Cc2ccoc2)CC1 | 1.04
42 | CCc1ccc(C2C(C#N)=C(N)Oc3[nH]nc(C)c32)cc1 (centres unmarked) | -5.63
43 | CCOc1ccc(C2NCCc3cc(OC)c(OC)cc32)cc1OCC (centres unmarked) | 1.93
44 | Cc1csc2nc(CNS(=O)(=O)N(C)C)cn12 | 4.14

Row | SMILES | % Inhibition @ 10 uM [%]
45 | Cc1ccc(NC(=O)C(CC(C)C)N2Cc3ccccc3C2=O)nc1 (centres unmarked) | -0.234
46 | Cn1c2c(c(=O)n(C)c1=O)C(c1c(F)cccc1Cl)CC(=O)N2 (centres unmarked) | 0.895
47 | CCc1ccc(-c2[nH]nc3nc(-c4ccccc4)cc(C(=O)O)c23)cc1 | -6.37
48 | Cc1cc(C)nc(N2CC(=O)N(C)C2=N)n1 | -0.711
49 | Cc1ccc2c(c1)cc1c(=O)n(CC(=O)NC3CCCC(C)C3C)nc(C)n12 (centres unmarked) | -7.47
50 | Cc1ccc(Nc2nc(-c3ccc(Br)cc3)cs2)cc1Cl | -3.79
51 | O=C(CCCCCNc1ccccc1)Nc1ccccc1 | 16.5
52 | O=C(O)c1ccccc1N1C(=O)C2CC=CCC2C1=O (centres unmarked) | -3.69
53 | Cc1ccc2[nH]ncc2c1 | 1.68
54 | COc1ccc(/C=N/n2cnc3c4cc(OC)ccc4nc-3c2O)cc1 | -5.28
55 | C=CCOC(=O)C1=C(C)NC(=O)NC1c1ccccc1F (centres unmarked) | 1.13
56 | CO/C(O)=C1\C(C)=NC2=C(C(=O)CC(c3ccccc3)C2)C1c1ccc(C)o1 (centres unmarked) | 5.7
57 | CC1CCCCN1C(=O)Nc1ccccc1 (centres unmarked) | -0.13
58 | CN1C(C(=O)NC(C)(C)C)=CC(c2ccc(F)cc2)=NS1(=O)=O | -1.06
59 | COCCCNC(=O)C1CCCN(S(=O)(=O)N2CCC(C)CC2)C1 (centres unmarked) | -6.88
60 | CC1(C)CC(=O)c2c(nc3c(c2-c2ccccc2)C(=O)CC(C)(C)C3)C1 | 1.24
61 | Cc1cccc(NC(=O)c2sc3nc4n(c(=O)c3c2C)CCCCC4)n1 | -2.88
62 | O/N=C1\c2ccccc2-c2c(F)c(F)c(F)c(F)c21 | -1.97
63 | CCn1c(=N)n(CC(=O)c2cccs2)c2ccccc21 | -0.0619
64 | Cc1ccc(Cc2nnc(C(=O)NCc3ccco3)o2)cc1 | -7.42
65 | O=C(O)C1CCC(CNCc2ccccc2Cl)CC1 (centres unmarked) | -1.99
